Assay results from the supplement of paper PMC10369915.
The list shows a part of the results. Rule as the data show it: active = 3.2 or more and inactive = the rest. Most of these values are background signal.

B1: DNER_HUMAN_711_YA (peptide)
chain: KKSRPAMYDVSPIAA
B2: DNER_HUMAN_721 (peptide)
chain: SPIAYEDYSPDDKPL
B3: DNER_HUMAN_721_YA (peptide)
chain: SPIAAEDYSPDDKPL
B4: DNJA2_HUMAN_391 (peptide)
chain: GGQRREAYNDSSDEE
B5: DOK1_HUMAN_337 (peptide)
chain: VQRKKPLYWDLYEHA
B6: DOK1_HUMAN_341_YA (peptide)
chain: KPLAWDLYEHAQQQL
B7: DOK1_HUMAN_362 (peptide)
chain: DPKEDPIYDEPEGLA
B8: DOK1_HUMAN_398 (peptide)
chain: ARVKEEGYELPYNPA
B9: DOK1_HUMAN_409 (peptide)
chain: YNPATDDYAVPPPRS
B10: DOK1_HUMAN_449 (peptide)
chain: KSHNSALYSQVQKSG
B11: DPH6_HUMAN_97 (peptide)
chain: GDEVEDLYELLKLVK
B12: DPYL1_HUMAN_32 (peptide)
chain: INDDQSLYADVYLED
B13: DPYL1_HUMAN_504 (peptide)
chain: GMYDGPVYEVPATPK
B14: DPYL1_HUMAN_504_YA (peptide)
chain: GMADGPVYEVPATPK
B15: DPYL2_HUMAN_32_YA (peptide)
chain: VNDDQSFYADIAMED
B16: DPYL2_HUMAN_431 (peptide)
chain: THNSSLEYNIFEGME
B17: DPYL2_HUMAN_499 (peptide)
chain: RGVPRGLYDGPVCEV
B18: DPYL3_HUMAN_431 (peptide)
chain: NHQSAAEYNIFEGME
B19: DPYSL2_HUMAN_479 (peptide)
chain: KPFPDFVYKRIKARS
B20: DUSP3_HUMAN_138 (peptide)
chain: SPTLVIAYLMMRQKM
B21: ACK1_HUMAN_827 (peptide)
chain: SFASDPKYATPQVIQ
B22: DYN3_HUMAN_125 (peptide)
chain: IPINLRVYSPHVLNL
B23: DYR1A_HUMAN_219_YA (peptide)
chain: KHDTEMKYAIVHLKR
B24: DYR1B_HUMAN_401 (peptide)
chain: PGHSPADYLRFQDLV
B25: DYR1B_HUMAN_92_YA (peptide)
chain: KKVLNHGYDDDNHDA
B26: DYRK2_HUMAN_382 (peptide)
chain: EHQRVYTYIQSRFYR
B27: DYRK4_HUMAN_264 (peptide)
chain: EHQKVYTYIQSRFYR
B28: E2AK2_HUMAN_101 (peptide)
chain: EGLSMGNYIGLINRI
B29: ACLY_HUMAN_131 (peptide)
chain: YATREGDYVLFHHEG
B30: EDNRB_HUMAN_439 (peptide)
chain: NFRSSNKYSSSGGGG
B31: EF2_HUMAN_373 (peptide)
chain: KYRCELLYEGPPDDE
B32: EGFR_HUMAN_1016 (peptide)
chain: DVVDADEYLIPQQGF
B33: EGFR_HUMAN_1069 (peptide)
chain: EDSFLQRYSSDPTGA
B34: ACLY_HUMAN_131_YA (peptide)
chain: AATREGDYVLFHHEG
B35: EGFR_HUMAN_1110 (peptide)
chain: GSVQNPVYHNQPLNP
B36: EGFR_HUMAN_1125 (peptide)
chain: APSRDPHYQDPHSTA

The binders below were run against SHP2 C-SH2 domain E139D (assay: enrichment score (SH2-bound / input frequency) (ratio); bacterial display of known human phosphotyrosine sites (pTyr-Var adds point mutants) read by sequencing; higher = stronger binding; tyrosines were phosphorylated by kinases first). Conditions: peptide library: Human pTyr.
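Also: displayed peptides selected on beads carrying the immobilized SH2 domain, with library peptides lacking any tyrosine serving as negative controls.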

Binder	enrichment score
B1	inactive: 1.19
B2	inactive: 0.865
B3	inactive: 0.802
B4	inactive: 1.15
B5	inactive: 2.71
B6	inactive: 0.689
B7	inactive: 1.19
B8	inactive: 0.833
B9	inactive: 0.549
B10	inactive: 1.15
B11	inactive: 0.939
B12	inactive: 1.03
B13	inactive: 0.723
B14	inactive: 0.717
B15	inactive: 1.2
B16	inactive: 1.08
B17	inactive: 0.902
B18	inactive: 0.799

Binder	enrichment score
B19	inactive: 0.834
B20	inactive: 2.27
B21	inactive: 0.79
B22	inactive: 0.818
B23	inactive: 2.77
B24	inactive: 0.782
B25	inactive: 0.874
B26	inactive: 2.04
B27	inactive: 2.56
B28	inactive: 0.803
B29	inactive: 0.726
B30	inactive: 0.497
B31	inactive: 1.2
B32	inactive: 0.981
B33	inactive: 0.601
B34	inactive: 0.722
B35	inactive: 0.66
B36	inactive: 0.811

These binders were tested against SHP2 C-SH2 domain wild-type in the same assay as above. Conditions: peptide library: Human pTyr.

Binder	enrichment score
B1	inactive: 1.09
B2	inactive: 0.804
B3	inactive: 0.556
B4	inactive: 1.06
B5	inactive: 2.71
B6	inactive: 0.651
B7	inactive: 1.11
B8	inactive: 0.843
B9	inactive: 0.562
B10	inactive: 1.42
B11	inactive: 0.819
B12	inactive: 1.02
B13	inactive: 0.519
B14	inactive: 0.513
B15	inactive: 1.07
B16	inactive: 1.1
B17	inactive: 0.902
B18	inactive: 0.822

Binder	enrichment score
B19	inactive: 1
B20	inactive: 2.18
B21	inactive: 0.662
B22	inactive: 0.605
B23	inactive: 3.19
B24	inactive: 1.47
B25	inactive: 0.671
B26	inactive: 1.74
B27	inactive: 2.83
B28	inactive: 0.9
B29	inactive: 0.852
B30	inactive: 0.387
B31	inactive: 1.18
B32	inactive: 0.796
B33	inactive: 0.387
B34	inactive: 0.634
B35	inactive: 0.596
B36	inactive: 0.61

The binders below were run against SHP2 N-SH2 domain L43F in the same assay as above. Conditions: peptide library: Human pTyr.

Binder	enrichment score
B1	inactive: 1.25
B2	inactive: 0.819
B3	inactive: 1.05
B4	inactive: 0.803
B5	inactive: 2.7
B6	inactive: 0.722
B7	inactive: 1.2
B8	inactive: 0.549
B9	inactive: 0.625
B10	inactive: 1.21
B11	inactive: 0.816
B12	inactive: 0.947
B13	inactive: 0.518
B14	inactive: 0.513
B15	inactive: 1.15
B16	inactive: 1.06
B17	inactive: 0.558
B18	inactive: 1

Binder	enrichment score
B19	inactive: 0.743
B20	inactive: 2.47
B21	inactive: 0.616
B22	inactive: 0.693
B23	inactive: 2.24
B24	inactive: 0.795
B25	inactive: 0.92
B26	inactive: 1.46
B27	inactive: 2.16
B28	inactive: 1.06
B29	inactive: 0.807
B30	inactive: 0.539
B31	inactive: 1.17
B32	inactive: 0.787
B33	inactive: 0.478
B34	inactive: 0.578
B35	inactive: 0.753
B36	inactive: 0.628

Each binder was assayed against SHP2 N-SH2 domain T42A in the same assay as above. Conditions: peptide library: Human pTyr.

Binder	enrichment score
B1	inactive: 1.29
B2	inactive: 1.01
B3	inactive: 0.666
B4	inactive: 0.919
B5	inactive: 2.47
B6	inactive: 0.675
B7	inactive: 1.11
B8	inactive: 0.609
B9	inactive: 0.563
B10	inactive: 0.906
B11	inactive: 0.797
B12	inactive: 1.07
B13	inactive: 0.634
B14	inactive: 0.548
B15	inactive: 0.991
B16	inactive: 1.05
B17	inactive: 0.583
B18	inactive: 0.947

Binder	enrichment score
B19	inactive: 0.949
B20	inactive: 1.8
B21	inactive: 0.565
B22	inactive: 0.683
B23	inactive: 2.86
B24	inactive: 1.06
B25	inactive: 0.778
B26	inactive: 1.76
B27	inactive: 2.28
B28	inactive: 0.905
B29	inactive: 0.766
B30	inactive: 0.618
B31	inactive: 1.2
B32	inactive: 0.746
B33	inactive: 0.46
B34	inactive: 0.587
B35	inactive: 0.584
B36	inactive: 0.523

The binders below were run against SHP2 N-SH2 domain T52S in the same assay as above. Conditions: peptide library: Human pTyr.

Binder	enrichment score
B1	inactive: 1.29
B2	inactive: 0.926
B3	inactive: 0.759
B4	inactive: 1.18
B5	inactive: 2.74
B6	inactive: 0.755
B7	inactive: 1.32
B8	inactive: 0.682
B9	inactive: 0.568
B10	inactive: 1.15
B11	inactive: 1.11
B12	inactive: 1.13
B13	inactive: 0.561
B14	inactive: 0.679
B15	inactive: 1.28
B16	inactive: 1.05
B17	inactive: 1.68
B18	inactive: 0.865

Binder	enrichment score
B19	inactive: 0.839
B20	inactive: 2
B21	inactive: 0.73
B22	inactive: 0.793
B23	inactive: 2.74
B24	inactive: 1.16
B25	inactive: 0.851
B26	inactive: 1.86
B27	inactive: 3.04
B28	inactive: 0.939
B29	inactive: 0.814
B30	inactive: 0.685
B31	inactive: 1.32
B32	inactive: 0.879
B33	inactive: 0.504
B34	inactive: 0.628
B35	inactive: 0.711
B36	inactive: 0.719

What follows are binders tested against SHP2 N-SH2 domain wild-type in the same assay as above. Conditions: peptide library: Human pTyr.

Binder	enrichment score
B1	inactive: 1.42
B2	inactive: 1.02
B3	inactive: 0.915
B4	inactive: 1.28
B5	active: 3.28
B6	inactive: 0.759
B7	inactive: 1.34
B8	inactive: 0.629
B9	inactive: 0.669
B10	inactive: 1.66
B11	inactive: 1.16
B12	inactive: 0.956
B13	inactive: 0.534
B14	inactive: 0.529
B15	inactive: 1.14
B16	inactive: 1.27
B17	inactive: 1.5
B18	inactive: 0.883

Binder	enrichment score
B19	inactive: 0.823
B20	inactive: 2.29
B21	inactive: 0.786
B22	inactive: 0.692
B23	active: 3.35
B24	inactive: 0.796
B25	inactive: 0.871
B26	inactive: 2.06
B27	inactive: 3.18
B28	inactive: 0.868
B29	inactive: 0.654
B30	inactive: 0.611
B31	inactive: 1.44
B32	inactive: 0.679
B33	inactive: 0.393
B34	inactive: 0.617
B35	inactive: 0.542
B36	inactive: 0.711
